# About 4,300 (8.3%) of roughly 52,000 compounds were called active. Cut-off read from the data, not from the text of the source: active = survival mostly below about 52% (no sharp cut-off); inactive = mostly above about 56%. The list shows a part of the results.
# Tested on: DeltatarO mutant
# Test: S. aureus survival, RN4220 and DeltatarO strains – OD600, teichoic acid synthesis inhibitors, primary screen (AID 463173)
# Conditions: S. aureus RN4220 wild type/DeltatarO growth, OD600, 18 h, active compounds read low, screened at 18.75 µg/mL (by protocol)
row,Structure (SMILES),survival
1,Cc1cccc(CSCCNC(=O)C2CCN(S(=O)(=O)Cc3ccccc3)CC2)c1,inactive: 72%
2,CCC(CC)C(=O)Nc1nnc(S(=O)(=O)N(C)c2cc(C)cc(C)c2)s1,inactive: 80%
3,Cc1c(Cl)cccc1NC(=O)c1oc2ccc(S(=O)(=O)N3CCCCCC3)cc2c1C,inactive: 73%
4,COCCNC(=S)N1CCC(NC(=O)NC23CC4CC(CC(C4)C2)C3)CC1,inactive: 91%
5,CCOC(=O)c1cc2c(=O)n3ccccc3nc2n(Cc2ccco2)c1=NC(=O)c1ccc(C(C)(C)C)cc1,active: 36%
6,COc1cccc(OC)c1C(=O)Nc1ccc(-c2nc3ncccc3o2)cc1,inactive: 92%
7,O=C(Nc1cccc(F)c1)c1ccc2oc(=O)n(Cc3ccccc3)c2c1,inactive: 70%
8,CCOC(=O)c1c(NC(C)=O)c2c3c(sc2n1Cc1c(C)cc(C)cc1C)CCCC3,inactive: 89%
9,COC(=O)c1cc(-c2cc(OC)c(OC)c(OC)c2)no1,inactive: 99%
10,CCOc1ccc(N(CC(=O)NCc2ccc(OC)cc2)S(=O)(=O)c2c(C)[nH]c(=O)[nH]c2=O)cc1,inactive: 86%
11,COc1cccc(C(=O)N(Cc2cccc(F)c2)C2CCS(=O)(=O)C2)c1 (centres undefined),inactive: 74%
12,COc1ccc(Cn2ccnc2SCC(=O)Nc2ccc3c(c2)OCCO3)cc1,inactive: 94%
13,CC(C)(C)c1ccc(OCC(=O)Nc2ccc(C(=O)OC3CCCCC3)cc2)cc1,inactive: 71%
14,COc1ccc(F)cc1S(=O)(=O)NCC(c1ccco1)S(=O)(=O)c1cccs1 (centres undefined),inactive: 91%
15,CC(C)Cn1nc(NC(=O)c2cccc(Cl)c2)c2cc3ccccc3nc21,inactive: 81%
16,CCOC(=O)c1ccc(NC(=O)c2c(NCc3sccc3C)sc3c2CCC(C)C3)cc1 (centres undefined),inactive: 116%
17,NC(=O)c1nc(Nc2ccccc2)sc1NC(=O)c1c(F)cccc1F,inactive: 74%
18,CN1CCN(C(CNC(=O)C(=O)Nc2ccc(Cl)cc2)c2cccnc2)CC1 (centres undefined),inactive: 86%
19,Cc1ccc(C)c(N2CCN(C(=O)CCc3nnc4n(C)c(=O)c5ccccc5n34)CC2)c1,inactive: 95%
20,CCOC(=O)c1cccnc1SCC(=O)N(CC)c1cccc(C)c1,inactive: 101%
21,O=C(CN(Cc1ccco1)C(=O)Cn1nnc(-c2cccs2)n1)NCc1ccccc1,inactive: 94%
22,Cc1ccc(Sc2ccc(N3CCCC(C(=O)Nc4ccc(F)c(Cl)c4)C3)nn2)cc1 (centres undefined),inactive: 68%
23,CCOc1ccc(CNC(=O)c2ccc3c(c2)c(C)c(C)n3C)cc1,inactive: 85%
24,CCCN(CCC)C(=O)Cn1c(=O)n(-c2ccc(OC)cc2OC)c(=O)c2c3c(sc21)CCC3,inactive: 86%

# Reference: PubChem BioAssay AID463173 (ICCB-Longwood Screening Facility, Harvard Medical School, 2010)
